Data as given in the supplement of paper PMC8728848.
Some of the results follow.

Key:
Experiment in all cases: glycan array binding signal (z-score within array); higher = stronger binding
Conditions in all cases: glycan notation: IUPAC condensed, linker removed
[1] = target: Gal(b1-4)GlcNAc(b1-3)Gal(b1-4)[Fuc(a1-3)GlcNAc(b1-6)]Gal(b1-4)Glc
Procedure, shortened: (§1)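 Glycan array binding is given as a within-array Z-score, which can be read as non-binding when negative. The arrays, 3228 of them, came from the Consortium for Functional Glycomics database and were retained only where the protein sequence was available. Z-scores were averaged across arrays of the same protein sequence at different concentrations or buffers and across linkers.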

[2] = target: Gal(b1-4)GlcNAc(b1-3)Gal(b1-4)[Fuc(a1-3)]GlcNAc(b1-3)Gal(b1-4)[Fuc(a1-3)]GlcNAc
Procedure, shortened: as §1

[3] = target: Gal(b1-4)GlcNAc(b1-3)GalNAc
Procedure, shortened: as §1

[4] = target: Gal(b1-4)GlcNAc(b1-3)[Gal(b1-4)GlcNAc(b1-6)]Gal(b1-4)GlcNAc
Procedure, shortened: as §1

[5] = target: Gal(b1-4)GlcNAc(b1-3)[Gal(b1-4)GlcNAc(b1-6)]GalNAc
Procedure, shortened: as §1

[6] = target: Gal(b1-4)GlcNAc(b1-3)[GlcNAc(b1-6)]Gal(b1-4)GlcNAc
Procedure, shortened: as §1

[7] = target: Gal(b1-4)GlcNAc(b1-6)Gal(b1-4)GlcNAc
Procedure, shortened: as §1

[8] = target: Gal(b1-4)GlcNAc(b1-6)GalNAc
Procedure, shortened: as §1

[9] = target: Gal(b1-4)GlcNAc(b1-6)[Gal(b1-3)]GalNAc
Procedure, shortened: as §1

Gal(b1-6)Gal = target: Gal(b1-6)Gal
Procedure, shortened: as §1

Gal3S(b1-3)GalNAc = target: Gal3S(b1-3)GalNAc
Procedure, shortened: as §1

Gal3S(b1-3)GlcNAc = target: Gal3S(b1-3)GlcNAc
Procedure, shortened: as §1

[10] = target: Gal3S(b1-3)[Fuc(a1-4)]GlcNAc
Procedure, shortened: as §1

Gal3S(b1-4)Glc = target: Gal3S(b1-4)Glc
Procedure, shortened: as §1

Gal3S(b1-4)Glc6S = target: Gal3S(b1-4)Glc6S
Procedure, shortened: as §1

Gal3S(b1-4)GlcNAc = target: Gal3S(b1-4)GlcNAc
Procedure, shortened: as §1

Gal3S(b1-4)GlcNAc6S = target: Gal3S(b1-4)GlcNAc6S
Procedure, shortened: as §1

[11] = target: Gal3S(b1-4)[Fuc(a1-3)]Glc
Procedure, shortened: as §1

[12] = target: Gal3S(b1-4)[Fuc(a1-3)]Glc6S
Procedure, shortened: as §1

Gal3S4S(b1-4)GlcNAc = target: Gal3S4S(b1-4)GlcNAc
Procedure, shortened: as §1

Gal3S6S(b1-4)GlcNAc = target: Gal3S6S(b1-4)GlcNAc
Procedure, shortened: as §1

Gal3S6S(b1-4)GlcNAc6S = target: Gal3S6S(b1-4)GlcNAc6S
Procedure, shortened: as §1

Gal4S(b1-4)GlcNAc = target: Gal4S(b1-4)GlcNAc
Procedure, shortened: as §1

Gal4S6S(b1-4)GlcNAc = target: Gal4S6S(b1-4)GlcNAc
Procedure, shortened: as §1

Gal6S(b1-3)GlcNAc = target: Gal6S(b1-3)GlcNAc
Procedure, shortened: as §1

Gal6S(b1-3)GlcNAc6S = target: Gal6S(b1-3)GlcNAc6S
Procedure, shortened: as §1

Gal6S(b1-4)Glc = target: Gal6S(b1-4)Glc
Procedure, shortened: as §1

Gal6S(b1-4)Glc6S = target: Gal6S(b1-4)Glc6S
Procedure, shortened: as §1

Gal6S(b1-4)GlcNAc = target: Gal6S(b1-4)GlcNAc
Procedure, shortened: as §1

Gal6S(b1-4)GlcNAc6S = target: Gal6S(b1-4)GlcNAc6S
Procedure, shortened: as §1

GalNAc(a1-3)Gal = target: GalNAc(a1-3)Gal
Procedure, shortened: as §1

GalNAc(a1-3)GalNAc = target: GalNAc(a1-3)GalNAc
Procedure, shortened: as §1

[13] = target: GalNAc(a1-3)GalNAc(a1-3)Gal(a1-4)Gal(b1-4)GlcNAc
Procedure, shortened: as §1

[14] = target: GalNAc(a1-3)GalNAc(b1-3)Gal(a1-4)Gal(b1-4)Glc
Procedure, shortened: as §1

GalNAc(b1-3)Gal = target: GalNAc(b1-3)Gal
Procedure, shortened: as §1

[15] = target: GalNAc(b1-3)Gal(a1-4)Gal(b1-4)GlcNAc
Procedure, shortened: as §1

[16] = target: GalNAc(b1-3)Gal(a1-4)Gal(b1-4)GlcNAc(b1-3)Gal(b1-4)Glc
Procedure, shortened: as §1

[17] = target: GalNAc(b1-3)Gal(a1-6)Gal(b1-4)Glc
Procedure, shortened: as §1

B1: Gal 3 (Canis lupus) (protein)
chain: MADSFSLNDALSGSGNPNPQGWPGPWGNQPAGAGGYPGASYPGAYPGQAPPGGYPGQAPPGGYPGQAPPGGYPGQAPPGGYPGQAPPGGYPGQAPPGTYPGPTAPAYPGPTAPGTQPGQPSGPGAYPPPGQPSAPGAYPAAGPFGIPAGPLTVPYDLPLPGGVKPRMLITILGTVRPSANRLALDFKRGNDVAFHFNPRFNEDNKRVIVCNTKLDNIWGKEERQAAFPFESGKPFKIQVLVESDHFKVAVNDAHLLQYNHRMKNLPEISKLGISGDIDLTSASYAMI
**Q.** What does the source list for B1?
**A.** glycan array binding signal (z-score) [1]: -0.159; glycan array binding signal (z-score) [2]: -0.022; glycan array binding signal (z-score) [3]: -0.224; glycan array binding signal (z-score) [4]: 0.024; glycan array binding signal (z-score) [5]: -0.096; glycan array binding signal (z-score) [6]: -0.195; glycan array binding signal (z-score) [7]: -0.251; glycan array binding signal (z-score) [8]: -0.224; glycan array binding signal (z-score) [9]: -0.249; glycan array binding signal (z-score) (Gal(b1-6)Gal): -0.128; glycan array binding signal (z-score) (Gal3S(b1-3)GalNAc): -0.255; glycan array binding signal (z-score) (Gal3S(b1-3)GlcNAc): 0.079; glycan array binding signal (z-score) [10]: -0.244; glycan array binding signal (z-score) (Gal3S(b1-4)Glc): -0.216; glycan array binding signal (z-score) (Gal3S(b1-4)Glc6S): -0.054; glycan array binding signal (z-score) (Gal3S(b1-4)GlcNAc): 0.047; glycan array binding signal (z-score) (Gal3S(b1-4)GlcNAc6S): 0.421; glycan array binding signal (z-score) [11]: -0.266; glycan array binding signal (z-score) [12]: -0.212; glycan array binding signal (z-score) (Gal3S4S(b1-4)GlcNAc): -0.05; glycan array binding signal (z-score) (Gal3S6S(b1-4)GlcNAc): -0.257; glycan array binding signal (z-score) (Gal3S6S(b1-4)GlcNAc6S): -0.242; glycan array binding signal (z-score) (Gal4S(b1-4)GlcNAc): -0.251; glycan array binding signal (z-score) (Gal4S6S(b1-4)GlcNAc): -0.25; glycan array binding signal (z-score) (Gal6S(b1-3)GlcNAc): -0.145; glycan array binding signal (z-score) (Gal6S(b1-3)GlcNAc6S): -0.134; glycan array binding signal (z-score) (Gal6S(b1-4)Glc): -0.262; glycan array binding signal (z-score) (Gal6S(b1-4)Glc6S): -0.274; glycan array binding signal (z-score) (Gal6S(b1-4)GlcNAc): -0.253; glycan array binding signal (z-score) (Gal6S(b1-4)GlcNAc6S): -0.252; glycan array binding signal (z-score) (GalNAc(a1-3)Gal): -0.272; glycan array binding signal (z-score) (GalNAc(a1-3)GalNAc): -0.267; glycan array binding signal (z-score) [13]: -0.258; glycan array binding signal (z-score) [14]: -0.146; glycan array binding signal (z-score) (GalNAc(b1-3)Gal): -0.251; glycan array binding signal (z-score) [15]: -0.257; glycan array binding signal (z-score) [16]: 0.568; glycan array binding signal (z-score) [17]: -0.254
